From patent US20120295838A1, “Selective poly-substituted glycine antibiotics and related compositions” (priority 2008, published 2012)
Values after ≈ are worked out from the molar mass of the structure shown. Not every detail of the peptide structures is certain; ends, links or a residue may be inferred. Square brackets hold non-standard residues; d marks the D form. Peptide text beside a SMILES is read from it. Nspe = C[C@H](NCC(=O)O)c1ccccc1; Nlys = NCCCCNCC(=O)O

Columns and labels:
Assay type in all cases: cell-based
[1] = system: Staphylococcus aureus NRS100 (COL); conditions: Table 7A; S. aureus NRS100 (COL) (MRSA)
Experimental: (§1) Antibacterial assays. MICs were determined according to CLSI M7-A6 protocols in a 96-well microtiter plate. In test wells, 50 uL bacterial inoculum (5×10^5 CFU/ml) in Mueller-Hinton broth (MHB) was added to 50 μL peptoid solution in MHB (prepared by 1:2 serial dilutions). Positive controls contained 50 μL inoculum and 50 μL MHB without peptoid. […] MIC values reported were reproducible between three independent experimental replicates, each consisting of two parallel trials. Broad-spectrum antimicrobial susceptibility testing was performed against BSL2 pathogens by Nova Biologicals, Inc. (Conroe, Tex.).
(§2) Broad-spectrum antibacterial assays. MICs of compounds were determined by microdilution procedure in Mueller-Hinton broth (MHB) in accordance with CLSI M7-A6 protocols in a manner similar to that described for the screen antibacterial assays. Inoculated microtiter plates were incubated at 35° C. for 24 hours prior to the result being recorded. Four ATCC strains that were used as standards are recommended by CLSI: Pseudomonas aeruginosa ATCC 27853, Escherichia coli ATCC 25922, Staphylococcus aureus ATCC 29213 and Enterococcus faecalis ATCC 29212. Other strains from the ATCC collection include Proteus vulgaris ATCC 49132, Proteus mirabilis ATCC 35659, Klebsiella pneumoniae ATCC 33495, Enterobacter aerogenes ATCC 35029 and Serratia marcescens ATCC 13880. S. aureus NRS100 (COL) is a well characterized methicillian-resistant S. aureus (MRSA) strain. The strains S. aureus VAN1 and S. aureus VAN2, vancomycin-resistant MRSA strains that were isolated in Michigan and Pennsylvania, were the first vancomycin-resistant strains clinically isolated. S. aureus NRS 119 and S. aureus NRS 120 are linezolid-resistant isolates from the Network on Antimicrobial Resistance in S. aureus (NARSA) collection. E. faecalis 99 and E. faecium 106 are vancomycin-resistant enterococcal strains.

Enterococcus faecalis 99 = conditions: Table 7A; E. faecalis 99
Experimental: as §1, §2

[2] = system: Staphylococcus aureus ATCC 29213; conditions: Table 7A; S. aureus ATCC 29213
Experimental: as §1, §2

[3] = system: Klebsiella pneumoniae ATCC 33495; conditions: Table 7A; K. pneumoniae ATCC 33495
Experimental: as §1, §2

[4] = system: Staphylococcus aureus NRS120; conditions: Table 7A; S. aureus NRS120 (linezolid-resistant)
Experimental: as §1, §2

[5] = system: Escherichia coli ATCC 25922; conditions: Table 7A; E. coli ATCC 25922
Experimental: as §1, §2

[6] = system: Proteus vulgaris ATCC 49132; conditions: Table 7A; P. vulgaris ATCC 49132
Experimental: as §1, §2

[7] = system: Staphylococcus aureus VAN1; conditions: Table 7A; S. aureus VAN1 (MRSA, vancomycin-resistant)
Experimental: as §1, §2

[8] = system: Staphylococcus aureus VAN2; conditions: Table 7A; S. aureus VAN2 (MRSA, vancomycin-resistant)
Experimental: as §1, §2

Enterococcus faecium 106 = conditions: Table 7A; E. faecium 106
Experimental: as §1, §2

[9] = system: Enterobacter aerogenes ATCC 35029; conditions: Table 7A; E. aerogenes ATCC 35029
Experimental: as §1, §2

[10] = system: Enterococcus faecalis ATCC 29212; conditions: Table 7A; E. faecalis ATCC 29212
Experimental: as §1, §2

[11] = system: Staphylococcus aureus NRS119; conditions: Table 7A; S. aureus NRS119 (linezolid-resistant)
Experimental: as §1, §2

[12] = system: Pseudomonas aeruginosa ATCC 27853; conditions: Table 7A; P. aeruginosa ATCC 27853
Experimental: as §1, §2

C[C@@H](c1ccccc1)N(CC(N)=O)C(=O)CN(C(=O)CN(CCCCN)C(=O)[C@@H]1CCCN1C(=O)CN(C(=O)CN(CCCCN)C(=O)CN(C(=O)CN(C(=O)CN(CCCCN)C(=O)CN(C(=O)CN(C(=O)CNCCCCN)[C@@H](C)c1ccccc1)[C@@H](C)c1ccccc1)[C@@H](C)c1ccccc1)[C@@H](C)c1ccccc1)[C@@H](C)c1ccccc1)[C@@H](C)c1ccccc1 [1-Pro9, H-(Nlys-Nspe-Nspe)2-Nlys-Nspe-L-Pro-Nlys-Nspe-Nspe-NH2] (H-[Nlys][Nspe][Nspe][Nlys][Nspe][Nspe][Nlys][Nspe]P[Nlys][Nspe][Nspe]-NH2)
MIC [1]: 8 µg/mL (≈ 4.56 µM)
MIC (Enterococcus faecalis 99): 64 µg/mL (≈ 36.5 µM)
MIC [2]: 16 µg/mL (≈ 9.12 µM)
MIC [3]: 16 µg/mL (≈ 9.12 µM)
MIC [4]: 16 µg/mL (≈ 9.12 µM)
MIC [5]: 8 µg/mL (≈ 4.56 µM)
MIC [6]: 64 µg/mL (≈ 36.5 µM)
MIC [7]: 8 µg/mL (≈ 4.56 µM)
MIC [8]: 8 µg/mL (≈ 4.56 µM)
MIC (Enterococcus faecium 106): 4 µg/mL (≈ 2.28 µM)
MIC [9]: 64 µg/mL (≈ 36.5 µM)
MIC [10]: 8 µg/mL (≈ 4.56 µM)
MIC [11]: 16 µg/mL (≈ 9.12 µM)
MIC [12]: 32 µg/mL (≈ 18.2 µM)
